# Sequences with one replicate were seen in a single cluster, so their values are uncertain.
# System: ATP
# Test: switch fluorescence ratio, 500 uM ATP over buffer (Cy3 cluster intensity, sum of 5 cycles each) (fold (ratio)); higher = stronger signal-on switching upon ATP binding; sequences stand for … in TCGTCGGCAGCGTCAGATGTGTATAAGAGACAGTTTTTTTTTTTTTTTTTTTTTTTTT…TC
# Settings: aptamer strand: ATP DNA aptamer (quencher-CACCTGGGGGAGTATTGCGGAGGAAGG + anchor), 100 nM annealed; ATP concentration: 500 uM; one replicate
# Summary of the method: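 Exposure to 500 uM ATP lasted 15 min at 22 °C before imaging, and a selection-buffer image was taken beforehand, for Cy3-labelled switching-strand clusters on a modified Illumina MiSeq flow-cell annealed to 100 nM quencher-labelled ATP aptamer. Five buffer/ATP cycles were run with NaOH stripping and re-annealing between them. The fluorescence ratio per cluster is summed target-cycle over summed buffer-cycle Cy3 intensity, averaged per switch-domain sequence. Clusters outside 100-1000 RFU were excluded.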
row,Sequence,switch fluorescence ratio
1,CTCCATGATG,0.989
2,GTTGCATGTT,0.973
3,GCTCTCCTCC,2.03
4,TTTTAGAACA,0.986
5,GACATTGCTC,1.07
6,AGGGTTACCT,1.05
7,GCAACTAGG,0.965
8,AGGTTGGGCC,1.01
9,ATTAATGCC,1.01
10,AATGTTCCGC,1.42
11,AAATGGTGCA,1.01
12,AAGGACCAAG,1.03
13,GTAATATATT,0.965
14,AAATGCAGCA,1.03
15,GGCTCAAATA,1.04
16,AACGTATGAG,0.982
17,ATACACTTAT,1.04
18,TCTGTATACT,1.06
19,GGAGCTGGCA,0.919
20,CTAAAATTGG,1.01
21,AAATTCGGCA,1.04
22,TGGGCTACCG,1.02
23,GGTGGTGTGG,1.03

row,Sequence,switch fluorescence ratio
1,AGACGACATA,1.1
2,GCAGGCTTAT,0.946
3,TAAAGATCCC,1.05
4,ATAATCTCAT,0.984
5,CAGGGTCGCT,0.998
6,ATGGGATCGT,0.994
7,CGTCAAAAAA,1.11
8,AGGTGTCGCA,1
9,GCTTAGGGGA,1.11
10,AGCAATTTAG,1.28
11,TGGTCCTTAA,1.01
12,TCTGGCAGGG,0.991
13,GAATGTGTGT,1.01
14,CTTTAGGTAC,1.94
15,CGGCTCACAT,1
16,CGTATACAGA,0.968
17,GTAACACCCG,0.981
18,TTGTTTCAT,1.02
19,GGCGTTGTGT,0.995
20,GACATGGTAT,1.02
21,ATTGCGTGCT,1.04
22,ATGTATATTA,1.05
23,GAAGTGATTC,1.08

row,Sequence,switch fluorescence ratio
1,ACATTTCCAG,1.05
2,GGATGGCATA,0.949
3,CCAATGTTGT,1.03
4,GTGTGATAT,1.02
5,TATTTTACAC,0.959
6,TACTGGCTTG,0.998
7,TTGCTATGCT,1.04
8,TAAGAGACAT,1.03
9,ACAGGCGGAA,0.987
10,CCAGTCAGAT,0.968
11,CTCAGTCGTT,1.03
12,GCAATGCAGC,1.11
13,CTAGCACTCG,0.994
14,CTATGGGGTC,1.02
15,GTTGTGCATG,0.977
16,AAAATTTGAG,1
17,ATCGGCTTAA,1
18,TCCTTGCGGC,1.8
19,TTGACCATT,0.983
20,AATGTGTGTC,0.995
21,GCGATTCCT,1.02
22,CCATATTATG,1.01
23,TGGGAGCACT,1.04

row,Sequence,switch fluorescence ratio
1,TCGGTGCGGA,1.01
2,TCGACTGGTG,1.12
3,TGCAATTATT,1.38
4,AGAAAACTTA,1.05
5,AGAAATACTA,1.15
6,TGCGGATGTC,1.04
7,CTGGAATTAA,1.01
8,GATGTATTGC,1.05
9,TAATACCATG,0.994
10,CAAAAAGAAG,1.01
11,ACCAACAGCC,1.11
12,AAGCGAGGGA,1.06
13,CCAAGCGTCA,1.08
14,TCAATCCAGT,1
15,GAAACTCTG,1.02
16,ATGTGACGTG,0.994
17,CGAGGCCGTG,1.05
18,ACGTTTCGGT,0.979
19,CCACCTTCTG,1.09
20,TTCAGCGACA,1.04
21,TTTTTATAGA,1.01
22,CTTTGGATAC,1.48
23,GGGTGCCGCC,0.943

row,Sequence,switch fluorescence ratio
1,GAATACTAGT,1.01
2,CTAGACCGAG,1.01
3,CGTAAATGCG,0.98
4,ACGGGATCCG,1.06
5,CTCGAGTAAT,1.09
6,GTGTCGGAGC,1.06
7,TCGTTACGAA,0.989
8,AAATACACAA,1.05
9,ACGTCCAAGT,0.989
10,GAAAACATAT,1
11,AGAGAAATTA,0.984
12,TTGGGTGTC,0.94
13,CGGGTCATGG,1.04
14,TGATTTTA,1.06
15,TCAATGAGTT,0.992
16,TAGGTAAGA,0.968
17,TAGGATTTG,0.979
18,AAAATGTATT,0.992
19,TATTCCAATT,0.99
20,TCATGTGCTG,1.01
21,CGATGAACCG,1.1
22,AAACGCCGGG,1.06
23,GCGTTTGCCT,0.986

row,Sequence,switch fluorescence ratio
1,GGTCCTCGGT,0.988
2,ATGTCCGTTT,0.967
3,CGTCCTTGGG,0.98
4,TTATGCCCCG,1.06
5,GAGGGGCTAC,1.01
6,ATCAGAGGGA,1.04
7,GACATGGGTA,0.951
8,GCAGTTGAAG,0.991
9,GCGAGCACGT,0.985
10,TCTTATAACT,1.02
11,TCGAGTTTAC,0.984
12,TGCGCGGATT,0.971
13,TGGGTTACTG,0.979
14,AAAACGCGAT,4.66
15,CTTGGTCACA,1.03
16,AAAAGAAAG,0.951
17,ACACGCAGCT,1.1
18,GCCGTGTTCA,1.03
19,AAGGTCAGGG,1.06
20,CTGAATAATA,0.981
21,TTCGCTGCAG,1.04
22,TTTGCAAGG,1.6
23,CCCGTTAGTG,0.985

row,Sequence,switch fluorescence ratio
1,AATGACAAGG,1.01
2,CTTGTGGAG,1
3,ACCCACACAG,1.37
4,TAGAGTGGTT,1.07
5,GGGTTGCGAA,0.984
6,TCGCCAGGCC,1.02
7,CAGGCTTGCT,1
8,AACGTTCCAA,1.11
9,AACGCAACAT,1.93
10,GGAATTGTCA,1.01
11,GCAGAATACT,1.3
12,TAGGCTCTGC,1.1
13,TAAGCTCCAT,0.991
14,ATTGAACGCC,1.06
15,TAACAGCTTA,1
16,TCCGTTGAGA,0.993
17,CATTGTACGG,0.944
18,GCTTTGTTAG,1.02
19,CGCCTGATGG,1.01
